From PubChem BioAssay AID1347120 (National Center for Advancing Translational Sciences (NCATS), 2019)
The whole screen tested about 390,000 compounds, of which about 930 (0.24%) were called active. The inconclusive results got no clear call from the source; some entries with a clear call stand among them for comparison. The call rests on the fitted dose curve; in most records, active means well fitted activation curve with a large enough effect; inconclusive means small, poorly fitted or top-dose-only effect; inactive means no such curve, though single readings can be large or run the other way. Potencies beside an inconclusive call are fits to weak or partial responses and may not hold up.

Test: qHTS for Suppressors of FUS Proteinopathy: Primary screen using FUS-linked yeast assay; further: nearly all actives have a fitted effect of over 55% in size;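 on growth rescue (activation): plate controls were DMSO vehicle for no effect and reference control for full effect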
Conditions: S. cerevisiae FUS-expressing, OD600, 24 h; Potency: growth rescue; growth rescue (activation): at 76.6 µM (top of the series)
In short: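 Galactose (2%) drives FUS expression in yeast precultured in raffinose; seeding density OD 0.005. Test compounds incubated 24hr at 30C and 99% humidity before absorbance at 600 nm was measured.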
Potency means the concentration at half of the fitted maximal effect; tags describe the fitted curve by direction and shape.

| SMILES | Potency | growth rescue (activation) |
| --- | --- | --- |
| COc1ccc(NC(=O)c2cc3c(=O)n(Cc4cccnc4)ccc3nc2C)c(OC)c1 | inactive | – |
| CCOC(=O)c1ccc(-c2ccc(C3Nc4ccccc4C(=O)N3O)o2)cc1 (stereo not drawn) | inconclusive: 17.8 µM [activator, single point] | – |
| CCOC(=O)c1c(C)nc2sc(C(N)=O)c(N)c2c1-c1ccc(OC)cc1 | inactive | – |
| C[C@@H]1CN([C@H](C)CO)C(=O)c2cc(NC(=O)Nc3ccc(F)cc3)ccc2O[C@H]1CN(C)C(=O)Nc1ccc(C(F)(F)F)cc1 | inconclusive: 25.1 µM [activator, single point] | – |
| CCc1nnc(SC(CC)C(=O)Nc2cc(C)ccc2C)c2cc3occc3n12 (stereo not drawn) | inactive | – |
| COc1cc(C)ccc1OCCCON1C(=O)CCC1=O | inconclusive: 56.2 µM [activator, partial curve, poor fit] | – |
| Cc1ccc(S(=O)(=O)N(Cc2n[nH]c(=S)n2-c2ccccc2)c2ccccc2)cc1 | inconclusive: 28.2 µM [activator, single point] | – |
| Cc1cc(Nc2ccc(Cl)cc2)n(-c2cccc(Cl)c2)n1 | inactive | – |
| COc1ccccc1-c1nnc(SCC(=O)Nc2nc(-c3ccccc3)cs2)n1C | inconclusive: 35.5 µM [activator, single point] | – |
| COc1ccc(C(=O)OCC(=O)NCc2ccco2)cc1S(=O)(=O)N1CCN(c2cccc(Cl)c2)CC1 | inconclusive: 10 µM [activator, partial curve, poor fit] | – |
| Cc1cccn2cc(-c3cccc(S(=O)(=O)N4CC(C)OC(C)C4)c3)nc12 (stereo not drawn) | inactive | – |
| O=C(CCC1CCCCC1)Nc1ccccc1-c1ccccc1 | inactive | – |
| O=C(C[C@@H]1C/C=C\C[C@H](Cc2ccc(F)cc2)C(=O)OC[C@@H]2CCCN2C1=O)N[C@H](CO)Cc1ccccc1 | inactive | – |
| Cc1cccc(-n2nnc(-c3nc(-c4cccs4)no3)c2N)c1 | inactive | – |
| Cc1cc(N2CCC(C)CC2)nc2ccc(NC(=O)CCC(=O)N3CCN(c4ccccc4F)CC3)cc12 | inactive | – |
| Cc1ccc(C)c2[nH]c(=O)c(CN(CCN3CCCC3)C(=O)Nc3cccc(Cl)c3)cc12 | active: 35.5 µM | – |
| COc1ccccc1N1CCN(S(=O)(=O)CCNC(=O)C(c2ccccc2)c2ccccc2)CC1 | inconclusive: 3.98 µM [activator, full curve] | – |
| COCCCNC(=S)N1CCN(S(=O)(=O)c2ccc(OC)cc2)CC1 | – | inconclusive: -124% [activator] |
| CCCCCCC(=O)N(O)C1CC(=O)N(c2ccc(C)cc2)C1=O (stereo not drawn) | inconclusive: 28.2 µM [activator, partial curve, poor fit] | – |
| COc1ccc(S(=O)(=O)N(CCc2ccccc2)CC(=O)Nc2cc(C)cc(C)c2)cc1OC | inconclusive: 31.6 µM [activator, partial curve, poor fit] | – |
| COc1cccc(C(=O)N(Cc2ccccc2)Cc2cc3cc4c(cc3[nH]c2=O)OCCO4)c1 | inactive | – |

| SMILES | Potency | growth rescue (activation) |
| --- | --- | --- |
| COc1ccc(OC)c(NC(=O)CC2SC(=Nc3ccccc3)N(CCc3ccccn3)C2=O)c1 (stereo not drawn) | active: 35.5 µM | – |
| NC(=O)c1ccsc1NC(=O)COC(=O)CNC(=O)c1cccc([N+](=O)[O-])c1 | inconclusive: 22.4 µM [activator, partial curve] | – |
| CCC(c1nnnn1-c1ccc2c(c1)OCCO2)N1CCN(c2ccc(C(F)(F)F)cc2[N+](=O)[O-])CC1 (stereo not drawn) | inconclusive: 12.6 µM [activator, partial curve] | – |
| Cc1ccc(S(=O)(=O)c2c(N)n(Cc3ccco3)c3nc4ccccc4nc23)cc1C | active: 25.1 µM | – |
| COc1ccc(-n2c(Cc3cccn3C)nnc2SCC(=O)Nc2nc(C)cs2)cc1 | inconclusive: 31.6 µM [activator, partial curve, poor fit] | – |
| Cc1ccc2c(c1)c(C)c(C)n2CC(O)Cn1nnc2ccccc21 (stereo not drawn) | inconclusive: 50.1 µM [activator, single point] | – |
| NS(=O)(=O)c1ccc(NC(=O)CSc2cn[nH]n2)cc1 | inconclusive: 0.794 µM [activator, partial curve, poor fit] | – |
| CC(C)C[C@H](NC(=O)c1[nH]cnc1C(=O)Nc1ccc(CNC(=O)OC(C)(C)C)cc1)C(=O)OC(C)(C)C | inconclusive: 8.91 µM [activator, full curve] | – |
| COc1cc(C(c2c(C)n(C)n(-c3ccccc3)c2=O)c2c(C)n(C)n(-c3ccccc3)c2=O)cc(Br)c1O | inconclusive: 8.91 µM [activator, partial curve] | – |
| CC1CCCC(NC(=O)COC(=O)c2ccc(N(C)C)cc2)C1C (stereo not drawn) | inactive | – |
| CCOc1ccc(/C(O)=C2/C(=O)C(=O)N(c3ccccn3)C2c2ccc(F)cc2)c(C)c1 (stereo not drawn) | inconclusive: 35.5 µM [activator, single point] | – |
| O=c1c(N2CCN(c3cccc(Cl)c3)CC2)csc2ccc(Cl)cc12 | inactive | – |
| CC1CCCCC12NC(=S)N(c1ccccc1)N2 (stereo not drawn) | inactive | – |
| COCCn1c(SCc2ccc(C(=O)OC)o2)nc2cc(Cl)ccc2c1=O | inconclusive: 15.8 µM [activator, partial curve] | – |
| CCOC(=O)C1(CCCc2ccccc2)CCN(C(=O)[C@@H]2C[C@@H](C)NC(=S)N2)CC1 | inactive | – |
| CCOC(=O)C1CCCN(c2nc3c(C)cccn3c(=O)c2/C=C(\C#N)C(=O)NCc2ccco2)C1 (stereo not drawn) | inconclusive: 50.1 µM [activator, single point] | – |
| CCCCN(C(=O)c1ccccc1OCc1ccc(F)cc1)c1c(N)n(CC(C)C)c(=O)[nH]c1=O | inconclusive: 39.8 µM [activator, partial curve, poor fit] | – |
| CCCn1ncc2c(Nc3ccc(C)c(C)c3)ncnc21 | inactive | – |
| CCN(CC)C(=O)C1CCCN(c2ncnc3c2c(-c2ccccc2)cn3-c2cccc(C)c2)C1 (stereo not drawn) | inconclusive: 22.4 µM [activator, single point] | – |
| CC(NC(=O)c1cccc(S(=O)(=O)N2CCCCCC2)c1)c1ccccc1 (stereo not drawn) | inconclusive: 50.1 µM [activator, single point] | – |
| COc1ccc(OCCCC(=O)OCC(=O)N2CCN(S(=O)(=O)c3ccc(C)cc3C)CC2)cc1 | inconclusive: 7.94 µM [activator, partial curve] | – |

| SMILES | Potency | growth rescue (activation) |
| --- | --- | --- |
| CSc1ccc(C2C(C#N)=C(N)Oc3c2ccc(=O)c2c(C)oc(C)c32)cc1 (stereo not drawn) | active: 22.4 µM | – |
| CCOC(=O)Nc1ccc2c(COC(=O)C(NS(=O)(=O)c3ccc(Cl)cc3)C(C)O)cc(=O)oc2c1 (stereo not drawn) | inactive | – |
| CCOC(=O)N1CCN(Cc2nc(N)nc(Nc3ccc(Oc4ccccc4)cc3)n2)CC1 | inconclusive: 28.2 µM [activator, single point] | – |
| Cc1sc2ncn(CC(=O)N3CCN(c4ccccc4)CC3)c(=O)c2c1S(=O)(=O)N1CCC(C)CC1 | active: 25.1 µM | – |
| COCCCNC(=O)C[C@H]1C[C@@]2(C(=O)OC)C(=C[C@H](C(C)C)O[C@@H]2C2CC2)N(Cc2ccc(Cl)cc2Cl)C1=O | active: 28.2 µM | – |
| Cc1ccc(C(=O)NC(C)c2ccc(-n3ccnc3)cc2)cc1S(=O)(=O)N1CCOCC1 (stereo not drawn) | inconclusive: 7.08 µM [activator, partial curve, poor fit] | – |
| CCCCCCCCN1C(=O)[C@H](CC(=O)N2CCOCC2)C[C@@]2(C(=O)OC)CCCCC=C12 | inconclusive: 15.8 µM [activator, partial curve, poor fit] | – |
| CCOc1ccccc1NC(=O)Cn1nc(N2CCN(c3ccccc3)CC2)ccc1=O | inconclusive: 28.2 µM [activator, partial curve] | – |
| CCOC(=O)c1ccc(NC(=S)N2CCSC2c2ccc(Cl)cc2)cc1 (stereo not drawn) | inconclusive: 50.1 µM [activator, single point] | – |
| C[C@@H]1CC[C@]2(C(=O)O)CC[C@]3(C)C(=CCC4[C@]56CC[C@@](O)(OC5)C(C)(C)C6CC[C@]43C)C2[C@H]1C (stereo partly drawn) | inconclusive: 35.5 µM [activator, single point] | – |
| CC(C)(C)c1csc(NC(=O)Cc2ccc(S(=O)(=O)N3CCOCC3)s2)n1 | inconclusive: 14.1 µM [activator, partial curve] | – |
| CCc1nnc(NS(=O)(=O)c2ccc(NC(=O)/C=C/c3ccc(OC)cc3OC)cc2)s1 | inconclusive: 5.62 µM [activator, partial curve, poor fit] | – |
| CCS(=O)(=O)n1nc(-c2ccc(C)cc2)nc1N | inactive | – |
| CCc1ccccc1N(CC)C(=O)Cn1nc(Cc2ccncc2)c2ccccc2c1=O | inactive | – |
| CCCCn1c(CNC(=O)C23CC4CC(CC(C4)C2)C3)nnc1SCC(=O)Nc1ccc(F)cc1 | inconclusive: 15.8 µM [activator, single point] | – |
| Cc1ccc(NC(=S)NCc2cccn2C)cc1 | inconclusive: 25.1 µM [activator, single point] | – |
| COCCNC(=S)N1CCN(c2nc(-c3ccc(Cl)cc3)cs2)CC1 | inconclusive: 14.1 µM [activator, partial curve, poor fit] | – |
| CN(Cc1ccccc1)C(=O)c1cccc(NC(=O)Cc2cccc(NC(=O)C3CCN(C(=O)C4CC4)CC3)c2)c1 | inconclusive: 50.1 µM [activator, single point] | – |
| COCCn1c(SCC(=O)NCC2CCCO2)nc2c(c1=O)SC(C)C2 (stereo not drawn) | inactive | – |
| Cc1ccc(NC(=O)CSc2nc3ccccc3n2CC(=O)N(C)C2CCCCC2)cc1C | inconclusive: 12.6 µM [activator, partial curve, poor fit] | – |
| COc1cc(NC(=O)C2CCN(c3nnc(-n4cccc4)s3)CC2)cc(OC)c1 | inconclusive: 20 µM [activator, single point] | – |
